Laboratory results from PMC6919601, “Identification of Plasmodium dipeptidyl aminopeptidase allosteric inhibitors by high throughput screening” (PLoS ONE, 2019).
About 230 (0.21%) of roughly 110,000 compounds showed an effect of 50% or more. This is one part of the list.

molecular target: DPAP1 (Plasmodium falciparum, UniProt Q8IIJ9); assay: primary screen, percent inhibition; read by cleavage of a fluorogenic dipeptide substrate; higher = more effect of the substance; design: species or system P. falciparum D10 trophozoite lysates; single well
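Note: 30 min substrate incubation versus DMSO and 10 µM JCP410 controls.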

Sequence of DPAP1 (Q8IIJ9 whole entry, looked up): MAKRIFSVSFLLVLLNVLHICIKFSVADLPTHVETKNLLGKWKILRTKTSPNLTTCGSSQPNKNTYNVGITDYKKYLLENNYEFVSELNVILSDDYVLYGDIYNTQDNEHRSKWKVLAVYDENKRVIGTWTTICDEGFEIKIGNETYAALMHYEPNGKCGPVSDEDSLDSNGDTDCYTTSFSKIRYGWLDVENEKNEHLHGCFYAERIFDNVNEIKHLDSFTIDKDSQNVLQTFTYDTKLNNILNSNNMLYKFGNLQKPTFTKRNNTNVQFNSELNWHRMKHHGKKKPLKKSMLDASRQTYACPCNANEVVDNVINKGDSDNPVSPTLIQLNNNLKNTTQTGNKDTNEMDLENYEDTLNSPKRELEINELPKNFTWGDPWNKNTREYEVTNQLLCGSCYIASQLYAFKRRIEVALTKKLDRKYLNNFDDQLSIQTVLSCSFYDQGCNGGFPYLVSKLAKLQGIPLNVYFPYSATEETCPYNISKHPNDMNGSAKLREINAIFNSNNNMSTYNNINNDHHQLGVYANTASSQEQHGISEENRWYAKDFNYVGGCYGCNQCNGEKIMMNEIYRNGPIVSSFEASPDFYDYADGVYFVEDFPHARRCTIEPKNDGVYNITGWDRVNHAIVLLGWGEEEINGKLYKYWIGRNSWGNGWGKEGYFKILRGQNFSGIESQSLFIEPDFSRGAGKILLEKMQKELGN

Structure (SMILES) | % Inhibition @ 10 uM
O=c1[nH]c(=O)n(CCc2ccccc2)c2c1C(C(F)(F)F)(C(F)(F)F)NC(c1ccco1)=N2 | 0.032%
CC(C)C(=O)n1nc(-c2cccnc2)nc1NCc1ccccc1 | -4.75%
O=C(CSc1ncccc1C(=O)O)NC1CCCCC1 | 1.16%
Cn1c(=O)n(Cc2ccccc2)c(=O)c2c1nc(NCC1CCCO1)n2Cc1ccccc1 (centres unmarked) | -1.5%
N#Cc1c(-c2ccccc2)cc(C2CC2)nc1N | 3.16%
O=S(=O)(c1ccccc1)n1nnc2ccccc21 | 0.78%
CC(C)(C)Nc1nc(Cl)nc(NC2CCCCC2)n1 | 3%
O=C(NCC1CCCO1)C1CCCCN1S(=O)(=O)c1ccc(F)cc1 (centres unmarked) | 3.34%
CCc1c(C)sc(NC(=O)c2cccs2)c1C#N | 2.69%
COc1ccccc1NC(=O)COc1ccc(S(=O)(=O)N2CCCC2)cc1 | 10.2%
FC(F)(F)c1ccc(-c2noc(Cc3ccccc3)n2)cc1 | -2.4%
CCc1ccc(NC(=O)CN(Cc2ccc(F)cc2)S(=O)(=O)c2ccccc2)cc1 | -7.32%
COc1ccc2[nH]cc(CCNC(=O)c3ccc(Cl)cc3)c2c1 | -1.86%
COc1ccc(CN2C(=O)C3C(c4ccc(C)cc4)OC4(C(=O)c5ccccc5C4=O)C3C2=O)cc1 (centres unmarked) | 6%
CC1(NC(=O)NCc2ccccc2)CCS(=O)(=O)C1 (centres unmarked) | -0.0267%
COc1ccc(-c2nnc(C3CCN(S(=O)(=O)c4ccc(C(C)(C)C)cc4)CC3)o2)cc1 | -4.74%
O=C(Cn1ncc2ccsc2c1=O)NCCc1ccc(Cl)cc1 | -1.21%
CCO/C(O)=C1\C(CC)=NC2=C(C(=O)CCC2)C1c1ccc(Cl)c(Cl)c1 (centres unmarked) | 4.74%
Cc1ccc(F)c(NC(=O)Nc2cccc(Cl)c2)c1 | -2.18%
Cc1oc(-c2ccc(C(=O)NCCc3ccc(Cl)cc3)cc2)nc1CS(=O)c1ccccc1 (centres unmarked) | -2.01%
CCOC(=O)c1[nH]nc2c1C(=O)N(Cc1ccccc1)C2=O | 1.74%
CC(=O)N1CCC(NCC2CCCCC2)CC1 | 1.9%
COc1cccc(C2C(C(C)=O)=C(O)C(=O)N2CCc2c[nH]c3ccccc23)c1 (centres unmarked) | 0.755%
Cc1ccc(/C(O)=C/c2nc3ncc(Br)cc3nc2O)cc1 | -4.66%
CNC(=O)c1ccccc1NC(=O)c1ccc(Cl)cc1Cl | -0.473%

Structure (SMILES) | % Inhibition @ 10 uM
CCn1c2ccccc2c2cc(CN3CCc4cc(OC)c(OC)cc4C3)ccc21 | 5.55%
N=c1c2c3c(sc2nc2n1CCCCC2)CCCCC3 | 6.22%
CN(C)S(=O)(=O)c1ccc(Sc2ccccc2)c(CO)c1 | -5.31%
CCOC(=O)C1=C(CN2CCC(Cc3ccccc3)CC2)NC(=O)NC1c1cccc(OC)c1OC (centres unmarked) | -1.3%
CCOC(=O)N1CCC(Nc2nc3ccccc3c3nnc(C)n23)CC1 | 2.5%
Cc1ccc(-n2cc(C(C)(C)C)nc2S)cc1 | -6.83%
CCN(C(=O)c1ccc(Cl)cc1Cl)c1ccccc1C | -2.6%
O=C(NCCCc1nc2ccccc2n1CCCOc1ccccc1)c1ccco1 | -2.99%
CC(C)C[C@H](NC(=O)c1cccc(Oc2ccccc2)c1)C(=O)NCC#N | -7.36%
COc1cccc(C2=NOC(C(=O)N3CCN(Cc4ccccc4)CC3)C2)c1 (centres unmarked) | -1.7%
Cc1ccc(O)c(NC(=O)c2ccc3c(c2)C(=O)N(Cc2cccnc2)C3=O)c1 | 0.528%
Cc1ccc(NC(=O)C(Cc2c[nH]c3ccccc23)NC(=O)OC(C)(C)C)cc1 (centres unmarked) | -3.69%
O=C1NC(=O)C(=Cc2ccccc2OCc2ccccc2Cl)C(=O)N1 | 2.7%
Cc1cc(C)c(C(=O)/C=C/c2cccc(Br)c2)c(O)n1 | 2.41%
CN(C)CCC1Sc2ccccc2Sc2ccccc21 (centres unmarked) | 1.4%
C=CCn1c(SCC(=O)NCC2CCCO2)nc2sc3c(c2c1=O)CCC3 (centres unmarked) | -2.77%
CNC(=O)C1CC(=O)N(CCc2ccc(OC)cc2)/C(=N/c2ccc(OC)cc2)S1 (centres unmarked) | 4.76%
O=C(Cn1nnc2ccccc2c1=O)c1cccs1 | -6.25%
Cc1cc(C)c(C(=O)/C=C/c2ccc(N(C)C)cc2)c(O)n1 | 3.54%
CC1=C(C(=O)N2CCOCC2)C(c2ccc(F)c(Br)c2)C2=C(O)CCCC2=N1 (centres unmarked) | 1.35%
Cc1ccc(C(=O)c2sc3nc4c(cc3c2N)CCC4)cc1 | 0.76%
CCOC(=O)C1CCN(C/C=C(\C)CCC=C(C)C)CC1 | 1.42%
CCNC(=O)c1c(NC(=O)c2ccccc2Cl)sc2c1CCCC2 | -3.53%
CCOCC(=O)Nc1ccc2ccccc2c1 | 0.795%
Cc1ccc(S(=O)(=O)NC(C(=O)N2CCCCC2)C(C)C)cc1 (centres unmarked) | -4.02%
